A word on the EC50: it is the concentration that produces a half-maximal response. Broadly, the Kd is the free concentration of one partner at which half of the binding sites on the other are occupied at equilibrium, for simple one-to-one binding.

Here are results for 9 molecules from US20140050743A1, “BINDING PROTEINS TO INHIBITORS OF COAGULATION FACTORS” (BAYER INTELLECTUAL PROPERTY GMBH, priority 2011, published 2014).

Experiment [1] concerns rivaroxaban induced FXa inhibition. The experiment can be described thus: Functional neutralization of rivaroxaban in a biochemical Factor Xa activity assay. The note with it: Table 6; biochemical FXa-assay, 0.05 nM FXa, 0.6 nM rivaroxaban; read-out: EC50. Here is the method: Serial dilutions of test compounds in assay buffer (50 mM HEPES pH 7.8, 250 mM NaCl, 6 mM CaCl2, 0.01% Brij35, 1 mM glutathione, 4 mM EDTA, 0.05% bovine serum albumin) were performed (typical concentrations ranging from 5 μM to 0.0007 μM).
20 μL of the diluted test compounds were placed in 384 well microtiter plates (Greiner, Frickenhausen, Germany), followed by the addition of 10 μL of a 1:400 dilution (250 μM) of the FXa substrate Pefafluor Xa (100 mM in DMSO, Loxo, Dossenheim, Germany) in assay buffer. […] Simultaneously, control reactions without rivaroxaban were started.
During incubation at 32° C., reaction progress curves were monitored using a fluorescence microtiter plate reader (e.g Tecan Ultra Evolution, Tecan Group Ltd., Mannedorf, Switzerland; excitation 360 nm, emission 465 nm).
The dilution of FXa was chosen that in the control reactions the reaction kinetics was linear, and less than 50% of the substrate was consumed (typical final FXa concentration in the assay: 0.05 nM). […] Results are depicted in FIG. 1.

The nature of experiment [2]: Affinity by surface plasmon resonance (Biacore), immobilized Fab, analyte rivaroxaban. In kind it is binding. The conditions noted are these: immobilized Fabs, SPR (Biacore). The text has this: “Binding affinity” refers to the strength of the sum total of noncovalent interactions between a single binding site of a molecule and its binding partner. Unless indicated otherwise, as used herein, “binding affinity” refers to intrinsic binding affinity which reflects a 1:1 interaction between members of a binding pair (e.g. an antibody and an antigen). The dissociation constant “KD” is commonly used to describe the affinity between a molecule (such as an antibody) and its binding partner (such as an antigen) i.e. how tightly a ligand binds to a particular protein. Ligand-protein affinities are influenced by non-covalent intermolecular interactions between the two molecules Affinity can be measured by common methods known in the art, including those described herein. In one embodiment, the “KD” or “KD value” according to this invention is measured by using surface plasmon resonance assays using a Biacore T100 instrument (GE Healthcare Biacore, Inc.) according to Example 5. The dissociation equilibrium constant (KD) was calculated based on the ratio of association (kon) and dissociation rated (koff) constants, obtained by fitting sensograms with a first order 1:1 binding model using Biacore Evaluation Software. Other suitable devices are BIACORE(R)-2000, a BIACORE (R)-3000 (BIAcore, Inc., Piscataway, N.J.), or ProteOn XPR36 instrument (Bio-Rad Laboratories, Inc.).
Binding affinities of Fab-fragments were determined by surface plasmon resonance analysis on a Biacore T100 instrument (GE Healthcare Biacore, Inc.). Fab fragments were diluted to a final concentration of 10 μg/ml in 10 mM sodium acetate, pH 4.5, and immobilized on a CM5 chip (GE Healthcare Biacore, Inc.) at levels of 3000-5000RU by amine-coupling chemistry for flow cells 2, 3 and 4, respectively. Flow cell 1 was used as a reference. […] Sensograms were generated after in-line reference cell correction followed by buffer sample subtraction. The dissociation equilibrium constant (KD) was calculated based on the ratio of association and dissociation rated constants, obtained by fitting sensograms with a first order 1:1 binding model using BiaEvaluation Software.

A short description of experiment [3]: Affinity by surface plasmon resonance (Biacore), analyte compound from Example 1G. In kind it is binding. The conditions noted are these: Table 7; immobilized Fabs, SPR (Biacore).
Experiment [4] in a line: Affinity by surface plasmon resonance (Biacore), analyte SATI. Type of experiment: binding. The note with it: Table 7; immobilized Fabs, SPR (Biacore). Background: SPR reads the build-up and loss of mass on a sensor chip optically.
Experiment [5] is described as follows: Affinity by surface plasmon resonance (Biacore), analyte apixaban. In kind it is binding. The note with it: Table 7; immobilized Fabs, SPR (Biacore).
A short description of experiment [6]: Affinity by surface plasmon resonance (Biacore), analyte edoxaban. In kind it is binding. The conditions noted are these: Table 7; immobilized Fabs, SPR (Biacore).
Experiment [7] in a line: Affinity by surface plasmon resonance (Biacore), analyte razaxaban. In kind it is binding. The note with it: Table 7; immobilized Fabs, SPR (Biacore).
Experiment [8] in a line: ELISA-based activity assay of antibody variants without a competition step. Details: key: ++: Variants with an average ratio above wt plus 2×SD (standard deviation of the ratio) were considered as improved; −: variants with a ratio below wt minus 2×SD were considered as reduced in their binding affinity; +/−: All variants with a performance in between both thresholds; −−: Variants with average fluorescence counts below the negative control (non-expressing cells) plus 3×SD were considered as non-binding. In kind it is binding. Here is the method: (§1) To determine the activity of the mutated antibody variants on compound from Example 1K an equilibrium or dissociation limited ELISA assay format was used. Briefly, MTP plates (Nunc Maxisorp black, 460518) were coated with 4 μg/ml streptavidin (Calbiochem, 189730) diluted in coating buffer (Candor Bioscience GmbH, 121500) and incubated over night at 4° C. After washing with PBST, plates were blocked with 100% Smart Block (Candor Bioscience GmbH, 113500) in PBST for 1 h at room temperature and the washing step was repeated. Plates were incubated with compound from Example 1K at varying concentrations (0.3-200 nM) for 1 h at 37° C., washed with PBST and antibody fragments were immobilized by adding 25 μl of the crude bacterial cultures for 1 h at room temperature. After washing with PBST a competition step or the immediate detection was performed. […] For the detection of the residually bound Fabs a HRP-coupled anti-lambda antibody (Sigma, A5175) diluted in 10% Smart Block in PBST was added for 1 h at room temperature. After washing 10 μM Amplex Red (Invitrogen, A12222) were added and incubated for 10 to 30 min at room temperature followed by measurement of the fluorescence signal.
(§2) Provided in Table 9 are several examples of single and/or double amino acid substitutions introduced into the heavy and/or the light chain of M14-G07 (wt). Performance of the variants was analyzed in quadruples in the ELISA without a competition step and the FXa deinhibition assay (FXa DIA). In the ELISA, averages were calculated and normalized to the respective average expression level. Overall performance of variants was evaluated by comparing the variant to wt ratio from 2-3 independent experiments. […] Variants with average fluorescence counts below the negative control (non-expressing cells) plus 3×SD were considered as non-binding and marked with “−−” with none of the variants fulfilling this criteria. In the FXa deinhibition assay averages were calculated and overall performance of variants was evaluated by comparing the variant to wt ratio from 2-3 independent experiments. […]
A general note: ELISA stands for enzyme-linked immunosorbent assay.

Experiment in experiment [9]: as above
Type of experiment: binding. Also on record: key: +++: Variants with an average ratio above reference plus 2×SD; +/−: variants with a ratio below reference minus 2×SD; ++: All variants with a performance in between both thresholds; −: Variants with a ratio below 0.5. The note with it: Table 10, multiple substitutions within M14-G07, variant to reference ratio (reference 2-fold improved over wt). Here is the method: as §1, §2

The mark [10] stands for this setting: Table 6, analyte rivaroxaban, read-out: KD.
The mark [11] stands for this setting: read-out: KD Rivaroxaban, Table 7.
[12] abbreviates: Table 10, multiple substitutions within M14-G07, variant to reference ratio (reference 2-fold improved over wt).

Positions count from the first letter of the chain named. Marks after values point to notes of the source that are not given here.

B1: M14-G07: antibody, Vh SEQ ID NO: 207, Vl SEQ ID NO: 208 (antibody, listed as Homo Sapiens, V domains shown)
VH: EVQLLESGGGLVQPGGSLRLSCAASGFTFGDYAMSWVRQAPGKGLEWVSGISGSGGSTYYADSVKGRFTISRDNSKNTLYLQMNSLRAEDTAVYYCAREGETSFGLDVWGQGTLVTVTS
VL: QSVLTQPPSASGTPGQRVTISCSGSSSNIGSNYVYWYQQLPGTAPKLLIYDNNDRPSGVPDRFSGSKSGTSASLAISGLRSEDEADYYCVAWDDSLNGHWVFGGGTKLTVL
In the case of B1, the EC50 in experiment [1] is less than 500 nM. Further, the Kd is less than 50 nM in experiment [2] (setting [10]), less than 50 nM in [2] (setting [11]) and greater than 1000 nM in experiment [3]. The “KD SATI” value in experiment [4] is “n.b”. The “KD Apixaban” value in experiment [5] was “n.b”. Besides, the “KD Edoxaban” value in experiment [6] is given as “n.b”. The “KD Razaxaban” value in [7] is reported as “n.b”.

B2: M14-G07-35: antibody, Vh SEQ ID NO: 195, Vl SEQ ID NO: 196 (antibody, listed as Homo Sapiens, V domains shown)
VH: B1 VH with G30S, D31S, G105Y, T118S
VL: B1 VL with D54Q, N97S
Turning to B2, the ELISA entry in [8] (setting [12]) is “++*”.

B3: M14-G07-36: antibody, Vh SEQ ID NO: 197, Vl SEQ ID NO: 198 (antibody, listed as Homo Sapiens, V domains shown)
VH: B1 VH with G30S, D31S, G105Y, T118S
VL: B1 VL with N32Y, D54Q, N97S
As for B3, in [9], the ELISA result is on record as “+++”.

B4: M14-G07-39: antibody, Vh SEQ ID NO: 203, Vl SEQ ID NO: 204 (antibody, listed as Homo Sapiens, V domains shown)
VH: B1 VH with G30S, D31S, G105Y, T118S
VL: B1 VL
For the molecule B4, in experiment [8] (setting [12]), the ELISA entry is on record as “++”.

B5: M14-G07-38: antibody, Vh SEQ ID NO: 201, Vl SEQ ID NO: 202 (antibody, listed as Homo Sapiens, V domains shown)
VH: B1 VH
VL: B1 VL with D54Q, N97S
For B5, the ELISA entry in [9] is recorded as “+/−”.

B6: M14-G07-40: antibody, Vh SEQ ID NO: 205, Vl SEQ ID NO: 206 (antibody, listed as Homo Sapiens, V domains shown)
VH: B1 VH with D31S, G105Y, T118S
VL: B1 VL with D54Q, N97S
For the molecule B6, the ELISA entry in [9] is reported as “+/−”.

B7: HC_D31S (antibody, V domains shown)
VH: EVQLLESGGGLVQPGGSLRLSCAASGFTFSSYQMTWIRQTPGKGLEWVSGVSWNGARTHYADSVKGRFTISRDNSKNTLYLQMNSLRAEDTAVYYCAKGDYLVYSAYYFDSWGQGTLVTVTS
VL: QSVLTQPPSASGTPGQRVTISCSGSSSNVGSNPVNWYQQLPGTAPKLLIYRNNQRPSGVPDRFSGSKSGTSASLAISGLRSEDEADYYCAAWDDRLNGWVFGGGTKLTVLGQ
B7: the ELISA result in experiment [8] (Table 9, single and double substitutions within M14-G07, variant to wt ratio, normalized to expression level) was “+/−”.

B8: M15-B07: antibody, Vh SEQ ID NO: 209, Vl SEQ ID NO: 210 (antibody, listed as Homo Sapiens, V domains shown)
VH: EVQLLESGGGLVQPGGSLRLSCAASGFTFSSYAMSWVRQAPGKGLEWVSGISGSGGGTYYADSVKGRFTISRDNSKNTLYLQMNSLRAEDTAVYYCAREGGTYYYGSGSYVLDYWGQGTLVTVTS
VL: QSVLTQPPSASGTPGQRVTISCSGSSSNIGSNYVYWYQQLPGTAPKLLIYRNNHRPSGVPDRFSGSKSGTSASLAISGLRSEDEADYYCAAWDDILSGWVFGGGTKLTVL
In the case of B8, the EC50 in [1] is less than 1000 nM. Further, the dissociation constant (Kd) in experiment [2] (setting [10]) was less than 500 nM.

B9: M18-G08: antibody, Vh SEQ ID NO: 217, Vl SEQ ID NO: 218 (antibody, listed as Homo Sapiens, V domains shown)
VH: EVQLLESGGGLVQPGGSLRLSCAASGFTFSNAWMSWVRQAPGKGLEWVSSISSSSGYIYYADSLKGRFTISRDNSKNTLYLQMNSLRAEDTAVYYCARVWRNHLDYWGQGTLVTVTS
VL: B8 VL with N28D, Y33T, Y35N, R51D, H54Q, A90Q, A91S, W92Y, D94S, I95S
Regarding B9, the EC50 in [1] was less than 500 nM. The equilibrium dissociation constant (Kd) in experiment [2] (setting [10]), in experiment [2] (setting [11]), in [3] and in [4] was less than 50 nM throughout. For the same molecule, in experiment [5], the “KD Apixaban” value is recorded as “n.b”. For the same molecule, in experiment [6], the “KD Edoxaban” value is “n.b”. In addition, the “KD Razaxaban” value in [7] is “n.b”.
